Out of some 310,000 compounds screened, about 18,000 (5.8%) were called active. Inconclusive means that the source gave no clear call. Such entries were picked first, then a sample of the others. Calls come from the whole dose curve; as a rule, active = well fitted inhibition curve with a large enough effect; inconclusive = small, poorly fitted or top-dose-only effect, or another doubt; inactive = no such curve, though single readings can be large or run the other way. Potencies of inconclusive entries are left out as doubtful fits.
Assay: Primary qHTS for delayed death inhibitors of the malarial parasite plastid, 48 hour incubation
Conditions: P. falciparum luciferase growth in erythrocytes; series mostly up to 28.7 µM; activity change, negative = inhibition: at the top concentration
Procedure, shortened: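 Compounds are pin-transferred into medium, infected erythrocytes (2% hematocrit, 0.1% parasitemia final) are added, and plates sit one parasite generation at 37 C in 5% CO2. Detection reagent is then added and luminescence measured.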
% is set by controls: 0 for no effect and ±100 for the full control effect; potency is the fitted concentration of half-maximal effect; tags give direction and shape of the fitted curve.

SMILES	Potency	activity change, negative = inhibition
COc1ccccc1NC1=NC(c2ccc(Cl)cc2)N=C(N)N1 (stereo unspecified)	active: 10.4 µM	–
O=C(Nc1cccc(Cl)c1)ON=C1c2ccccc2-c2ccccc21	–	inactive: 7.72%
Cc1ccc(C(=O)CCC(=O)NNC(=O)c2ccccc2O)cc1	inconclusive [inhibitor, partial curve, poor fit]	–
CCN(CC)C(=O)CSc1nc2[nH]ncc2c(=O)[nH]1	inconclusive [inhibitor, full curve, poor fit]	–
NS(=O)(=O)c1ccc(-c2ccc(/C=C3\SC(=S)N(C4CCS(=O)(=O)C4)C3=O)o2)cc1 (stereo unspecified)	inconclusive [inhibitor, partial curve, poor fit]	–
Cc1ccc(C(C)C)c(OCC(=O)Nc2ccc(Cl)cn2)c1	inconclusive [inhibitor, single point]	–
CC(=O)N(/N=C/c1cccc(C)c1)c1nc(-c2ccc(Br)cc2)cs1	inconclusive [inhibitor, single point]	–
OCCC1CN(Cc2ccccc2-c2ccco2)CCN1C1CCCC1 (stereo unspecified)	active: 9.28 µM	–
COc1cc(-n2c(=S)[nH]c3ccc(C)cc3c2=O)c(Cl)cc1Cl	inconclusive [inhibitor, partial curve]	–
COc1ccc(-c2cc(-c3ccccc3)[n+](C)c(-c3ccccc3)c2)cc1	inconclusive [inhibitor, full curve]	–
COc1cc(/C=N/NC(=O)CCOc2ccccc2C)cc(Br)c1O	–	inactive: 4.04%
CS(=O)(=O)N1CCC(Oc2ccccc2C(=O)NCCCc2cccnc2)CC1	–	inactive: -10.9%
Cc1nc(N2CCN(c3ccccn3)CC2)c2c(C)c(C(=O)Nc3c(C)cc(Br)cc3C)sc2n1	active: 1.85 µM	–
COc1cc(NC(=O)C2CCCN(S(=O)(=O)c3cccc4nsnc34)C2)cc(OC)c1 (stereo unspecified)	inconclusive [inhibitor, partial curve, poor fit]	–
O=C(c1ccc2c(c1)OCO2)C1CCCN(Cc2ccccn2)C1 (stereo unspecified)	inconclusive [inhibitor, single point]	–
CC1CCCC(NC(=O)C2CCC(CNc3c(N4CCCCC4)c(=O)c3=O)CC2)C1C (stereo unspecified)	inconclusive [inhibitor, partial curve, poor fit]	–
Cc1nc(NC(=O)c2ccccc2)sc1-c1csc(NCc2ccccc2)n1	inconclusive [inhibitor, single point]	–
O=C(NCCC1CCCCN1S(=O)(=O)c1ccccc1)C(=O)NCc1ccccc1F (stereo unspecified)	–	inactive: -18.7%
CCOc1ccc(NC(=O)CN(C)C(=O)c2cn(-c3ccccc3)nc2-c2cccs2)cc1OCC	–	inactive: -2.71%
N/C(Cc1ccc([N+](=O)[O-])cc1)=N\OC(=O)c1ccccc1Br	inconclusive [inhibitor, single point]	–
CCCC1=NN2C(=N)/C(=C\c3cc(C)n(-c4cc(C)cc(C)c4)c3C)C(=O)N=C2S1	inconclusive [inhibitor, partial curve, poor fit]	–
COc1ccc(-c2cc3nc(CCl)[nH]c(=O)c3s2)cc1	inconclusive [inhibitor, single point]	–
COc1ccnc2c1c(=O)n(Cc1ccc(F)cc1)c(=O)n2C	inconclusive [inhibitor, partial curve, poor fit]	–
Cc1cc2oc(=O)cc(CN3CCN(Cc4ccccc4)CC3)c2cc1O	active: 9.28 µM	–

SMILES	Potency	activity change, negative = inhibition
CNC(C)C(=O)NC(C(=O)N1CCCC1C(=O)NNc1ccccc1)C(C)C (stereo unspecified)	inconclusive [inhibitor, partial curve]	–
COc1ccc(S(=O)(=O)N2CCSC2c2ccc(OC)c(OC)c2)cc1 (stereo unspecified)	inconclusive [inhibitor, partial curve]	–
CC(C)C(OC(=O)c1ccco1)C(=O)NC1CCCCC1 (stereo unspecified)	inconclusive [inhibitor, full curve, poor fit]	–
Cc1ccc(-n2cc(CNC(C)Cn3cncn3)c(-c3ccc(F)cc3)n2)cc1 (stereo unspecified)	active: 7.38 µM	–
COC1=C(Nc2ccc(O)cc2)C(=O)c2ccccc2C1=O	inconclusive [inhibitor, single point]	–
COc1ccc(-c2nnc3n2CCCCC3)cc1	–	inactive: 17.4%
COc1ccc(NC(=O)CCN2C(=O)[C@@H]3[C@H](C2=O)[C@H]2C=C[C@@H]3C2)cc1	–	inactive: 35.5%
Cc1ccc2c(c1)C(O)(c1c(C)[nH]c3ccccc13)C(=O)N2 (stereo unspecified)	inconclusive [inhibitor, single point]	–
COc1ccc(CCn2c(C)cc(C(=O)CSc3nnc(N)s3)c2C)cc1	inconclusive [inhibitor, single point]	–
Clc1ccc(-c2ncc3ccccn23)cc1	inconclusive [inhibitor, single point]	–
CC(C)OC(=O)C(C)Nc1ccc(F)c(Cl)c1 (stereo unspecified)	–	inactive: 0.607%
Cc1cc(Nc2ccc(N3CCOCC3)cc2)c2cccc(C)c2n1	active: 4.15 µM	–
CN(C)CCNc1cnn(-c2ccccc2)c(=O)c1Cl	–	inactive: 14.7%
CCOc1ccc(C(CCc2ccccc2)NC(=O)c2ccccc2)cc1OCC (stereo unspecified)	active: 4.65 µM	–
CCOc1ccc(CNC(=O)C(C)n2nc(C)c3c(C)n(-c4ccccc4)nc3c2=O)cc1 (stereo unspecified)	inconclusive [inhibitor, partial curve, poor fit]	–
CCOC(=O)N1CCN(C(=O)c2ccc3c(c2)NC(=O)/C(=C\c2ccc(OC)c(OC)c2)S3)CC1	inconclusive [inhibitor, partial curve]	–
CCCOc1cccc(-c2nn(-c3ccccc3)cc2/C=C(\C#N)C(=O)NCCCn2ccnc2)c1	active: 2.08 µM	–
Cc1cccc2cc(CN(CCN3CCOCC3)C(=O)NCc3ccccc3)c(=O)[nH]c12	–	inactive: 2.22%
CC1=C(C(=O)OCCC#N)C(c2cc3c(cc2Br)OCO3)NC(=O)N1 (stereo unspecified)	inconclusive [inhibitor, partial curve, poor fit]	–
CC(C)(C)NC(=O)C(c1ccccn1)N(C(=O)c1csnn1)C1CCCC1 (stereo unspecified)	–	inactive: -7.58%
CCc1ccc(S(=O)(=O)/N=C2\C=C(Nc3ccc(C(=O)O)cc3)C(=O)c3ccccc32)cc1	active: 2.33 µM	–
COc1ccccc1N(CC(O)Cn1nc(C)cc1C)S(=O)(=O)c1ccccc1 (stereo unspecified)	–	inactive: -16.2%
CCOC(=O)c1cnc2ccc(OCC)cc2c1N1CCN(C)CC1	active: 8.28 µM	–
O=c1cc(-c2ccccc2)[nH]c2[nH]n(-c3ccccc3)c(=O)c12	inconclusive [inhibitor, partial curve]	–

SMILES	Potency	activity change, negative = inhibition
COc1cc(Cl)ccc1OCc1cc(C(=O)N2CCCCC2c2cccnc2)no1 (stereo unspecified)	inconclusive [inhibitor, single point]	–
Oc1ccc2ccccc2c1C=NC12CN3CCN(CN(C3)C1)C2	inconclusive [inhibitor, single point]	–
CN(CCc1ccccn1)C(=O)CC1C(=O)NCCN1Cc1ccc(-c2ccccc2)cc1 (stereo unspecified)	inconclusive [inhibitor, single point]	–
O=C(c1ccccc1)c1ccc(OC(=O)N2CCOCC2)cc1	–	inactive: 20.9%
CC(CN1CCOCC1)OC(=O)c1cccc(Cl)c1 (stereo unspecified)	–	inactive: -9.29%
COCCCNC(=S)N/N=C/c1ccc2ccccc2c1	inconclusive [inhibitor, single point]	–
CCc1ccc(NC(=O)CSc2nc3ccccc3nc2N2CCCCC2)cc1	inconclusive [inhibitor, partial curve]	–
CCn1c(C)nc2cc(C(=O)NNC(=S)Nc3ccc(F)cc3)ccc21	–	inactive: 129%
Cc1ccc(OCC(O)CN2CCN(Cc3ccc4c(c3)OCO4)CC2)c(C)c1 (stereo unspecified)	–	inactive: -8.47%
CCN1CCN(C(=O)c2ccc(OCC(=O)Nc3ccc(F)cc3)c(OC)c2)CC1	–	inactive: -22.1%
O=S1(=O)N=C2CCCCCN2C(c2ccc(Br)cc2)N1 (stereo unspecified)	–	inactive: 0%
CCOC(=O)c1nnn(-c2nonc2-c2ccccc2)c1C	inconclusive [inhibitor, single point]	–
O=C(CSc1ccc(-c2nc3ccccc3[nH]2)cn1)Nc1ccc2c(c1)OCCO2	–	inactive: 34.9%
Cn1c(=O)[nH]c(=O)c2c1nc(CN1CCN(c3ccccc3F)CC1)n2CCCc1ccccc1	inconclusive [inhibitor, full curve, poor fit]	–
CCOC(=O)C1(Cc2ccccc2C(F)(F)F)CCN(CC2CC2)CC1	inconclusive [inhibitor, single point]	–
Cc1ccc(C)c(N2CCN(C(=O)c3ccc4c(=O)n5c(nc4c3)CCCCC5)CC2)c1	inconclusive [inhibitor, partial curve]	–
O=C(NCC1CCCN1S(=O)(=O)c1cccs1)C(=O)Nc1cccc(F)c1 (stereo unspecified)	inconclusive [inhibitor, single point]	–
CCNC(=S)NNC(=O)c1cc(-c2ccc(OCC)cc2)nc2ccccc12	inconclusive [inhibitor, full curve, poor fit]	–
Cc1ccc(-c2cc(C(=O)NN=C3CCCC3)c3ccccc3n2)cc1	inconclusive [inhibitor, single point]	–
O=C(Nc1ccc(NC(=O)c2cccs2)cc1Cl)c1ccco1	–	inactive: 85.8%
COc1cc2c(cc1OC)CN(C(=O)CSc1nc3[nH]ncc3c(=O)n1-c1ccccc1)CC2	inconclusive [inhibitor, partial curve, poor fit]	–
Cc1ccc2cc(C=O)c(Cl)nc2c1	–	inactive: 4.11%
COc1ccc(C2=NOC(C(=O)Nc3ccc4c(c3)OCO4)C2)cc1OC (stereo unspecified)	–	inactive: -21.6%

Source: PubChem BioAssay AID504832 (National Center for Advancing Translational Sciences (NCATS), 2011)
